Test results reported in PubChem BioAssay AID493005 (National Center for Advancing Translational Sciences (NCATS), 2010).
“And” between values parts separate entries of the source, which are not always exact repeats. Equal values may be shown once. Screen size: about 340,000 compounds; fewer than 10 were called active. Inconclusive means that the source gave no clear call. Such entries were picked first, then a sample of the others. The call rests on the fitted dose curve; in most records, active means well fitted inhibition curve with a large enough effect in the main read-out, with a control signal flat (not every such curve was filed as active); inconclusive means small, poorly fitted or top-dose-only effect, or effect the other way, or a change in a side signal; inactive means no such curve, though single readings can be large or run the other way. Potencies of inconclusive entries are doubtful fits and often do not repeat. “Side channel” marks fits to a control or component signal instead of the main read-out.
Potency means the concentration at half of the fitted maximal effect; tags describe the fitted curve by direction and shape or compound fluorescence and quenching.
Wherever activity change, negative = inhibition is given: % of control where 0% means no effect.

These compounds were tested against Tumor susceptibility gene 101 protein (Homo sapiens) (UniProt Q99816) (assay: qHTS Assay for Iinhibitors of HIV-1 Budding by Blocking the Interaction of PTAP/TSG101). Details: Fluorescence polarization, FITC-PTAP peptide / Tsg101 binding; series mostly up to 115 µM; activity change, negative = inhibition: at the top concentration.
UniProt Q99816, sequence (Q99816 whole entry, looked up, the tested form may be a part): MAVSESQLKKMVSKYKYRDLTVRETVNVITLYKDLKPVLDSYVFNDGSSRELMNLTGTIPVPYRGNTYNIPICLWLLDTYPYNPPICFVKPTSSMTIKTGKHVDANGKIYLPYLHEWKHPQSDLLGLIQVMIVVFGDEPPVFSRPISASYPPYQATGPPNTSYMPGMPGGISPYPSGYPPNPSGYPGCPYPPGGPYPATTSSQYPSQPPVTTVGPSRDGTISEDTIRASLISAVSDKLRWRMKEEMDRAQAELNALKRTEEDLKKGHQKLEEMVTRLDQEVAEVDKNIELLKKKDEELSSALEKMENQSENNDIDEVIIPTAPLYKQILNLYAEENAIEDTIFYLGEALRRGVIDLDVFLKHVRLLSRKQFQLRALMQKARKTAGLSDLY
Outline: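 Compounds were pin-transferred onto Tsg101 binding domain (10 uM final) in HEPES pH 7.5 buffer, then FITC-PTAP peptide was added at 50 nM final. After 20 min at RT, polarization reported peptide displacement across a qHTS concentration series.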
CCOC(=O)c1c(/N=C/C2C(=O)NC(=S)NC2=O)sc2c1CCC2 was tested, and the Potency was inconclusive: 44.7 µM [fluorescent, side channel, partial curve, poor fit].
CN1CCN(c2cccc3c2C(=O)c2ccccc2C3=O)CC1 was tested, and the “activity change, negative = inhibition” value was inactive: -0.484%.
In the case of N#CC(C#N)=Cc1ccc(-c2ccccc2F)o1, the Potency is reported as inconclusive: 56.2 µM [fluorescent, side channel, partial curve, poor fit].
For Cc1cccc(NP(=O)(Oc2ccccc2F)Oc2ccccc2F)c1, the Potency was inconclusive: 25.1 µM [quencher, side channel, partial curve, poor fit].
For CCOC(=O)c1cc(CC)sc1/N=C/C1C(=O)NC(=S)NC1=O, the Potency was inconclusive: 50.1 µM [fluorescent, side channel, partial curve, poor fit].
For Nc1ccc2nonc2c1[N+](=O)[O-], the Potency was inconclusive: 56.2 µM [fluorescent, side channel, partial curve, poor fit].
For CCc1ccccc1N1C(=O)/C(=C/c2ccc(N3CCN(C)CC3)o2)C(=O)NC1=S, the Potency was inconclusive: 89.1 µM [fluorescent, partial curve, poor fit].
CC1=C[C@@H]2c3cccc4[nH]cc(c34)C[C@H]2N(C)C1 was tested, and the Potency was inconclusive: 50.1 µM [fluorescent, side channel, partial curve, poor fit].
For O=[N+]([O-])c1ccc(NCc2ccccc2)c2nonc12, the Potency was inconclusive: 11.2 µM [fluorescent, side channel, partial curve].
For Cc1ccccc1-n1c(O)c(/C=C/C=Nc2ccccc2)c(=O)[nH]c1=O, the Potency was inconclusive: 56.2 µM [fluorescent, side channel, partial curve, poor fit].
In the case of CCN(CC)c1ccc(/C=N/c2sc3c(c2C#N)C2CCN3CC2)c(O)c1, the Potency is reported as inconclusive: 44.7 µM [fluorescent, side channel, partial curve, poor fit].
COC(=O)C1=C(C)N(Cc2ccco2)C(=O)/C1=C\c1ccc(N(C)C)cc1 was tested, and the Potency was inconclusive: 89.1 µM [fluorescent, side channel, partial curve, poor fit].
With COc1ccc(F)cc1CN1CCN(C(=O)CCC(=O)Nc2nnc(CC(C)C)s2)CC1 the Potency was inconclusive: 56.2 µM [fluorescent, side channel, partial curve, poor fit].
For Nc1ccc2ccc3cccc[n+]3c2c1, the Potency was inconclusive: 44.7 µM [fluorescent, side channel, partial curve].
For C/C(=N\N1CCCCC1c1cccnc1)c1c(O)n(C2CCCCC2)c(=S)[nH]c1=O (stereo not given), the Potency was inconclusive: 50.1 µM [fluorescent, side channel, partial curve, poor fit].
For CCOC(=O)c1c(/N=C/c2c(O)n(-c3ccccc3F)c(=S)[nH]c2=O)sc2c1CCCC2, the Potency was inconclusive: 50.1 µM [fluorescent, side channel, partial curve, poor fit].
For CC1=NCCc2c1[nH]c1cc(O)ccc21, the Potency was inconclusive: 56.2 µM [fluorescent, side channel, partial curve, poor fit].
Cc1cc(C(=O)CS(=O)c2ccc(F)cc2)cc(C)c1OC(=O)N(C)C (stereo not given) was tested, and the “activity change, negative = inhibition” value was inactive: -2.59%.
In the case of CCC(C)c1ccc(N2C(=O)NC(=O)/C(=C/c3cccn3CCOc3ccc(C)cc3)C2=O)cc1 (stereo not given), the Potency is reported as inconclusive: 56.2 µM [fluorescent, side channel, partial curve, poor fit].
For COc1ccc(-n2nc(C(=O)NCC(=O)N3CCC4(CC3)OCCO4)c3ccccc3c2=O)cc1OC, the “activity change, negative = inhibition” value was inactive: -0.706%.
With COc1ccc(N2C(=O)NC(=O)/C(=C\c3cn(C)c4ccccc34)C2=O)cc1 the Potency was inconclusive: 79.4 µM [fluorescent, side channel, partial curve, poor fit].
CCC1(OC(=O)c2ccccc2)CC(C)N(C)CC1C (stereo not given) was tested, and the Potency was inconclusive: 50.1 µM [fluorescent, side channel, partial curve, poor fit].
In the case of COc1cccc2c1C(=O)c1c(O)c3c(c(O)c1C2=O)CC(O)(C(C)=NO)CC3OC1CC(N)C(O)C(C)O1 (stereo not given), the Potency is reported as inconclusive: 56.2 µM [fluorescent, side channel, partial curve, poor fit].
With Cc1ccc(-n2c(O)c(/C=C/C=Nc3ccccc3)c(=O)[nH]c2=O)cc1 the Potency was inconclusive: 79.4 µM [fluorescent, side channel, partial curve].
With CN1C(=O)C(=Cc2ccc(N3CCCCCC3)o2)C(=O)N(C)C1=S the Potency was inconclusive: 17.8 µM [fluorescent, side channel, full curve, poor fit].
In the case of O=C1NC(=S)SC1=Cc1ccc(N(CCCl)CCCl)cc1, the Potency is reported as inconclusive: 31.6 µM [fluorescent, side channel, partial curve].
With Cc1cc(N(CCCl)CCCl)ccc1C=Cc1ccncn1 the Potency was inconclusive: 50.1 µM [fluorescent, side channel, partial curve, poor fit].
In the case of CC(C)Nc1ccc(Nc2ccccc2)cc1, the “activity change, negative = inhibition” value is reported as inactive: -0.38%.
CN1CCc2nc3ccc(F)cc3c(C(N)=O)c2C1 was tested, and the “activity change, negative = inhibition” value was inactive: -6.4%.
In the case of C[n+]1c2cc(N)ccc2cc2ccc(N)cc21, the Potency is reported as inconclusive: 10 µM [fluorescent, side channel, full curve] and inconclusive: 10 µM [fluorescent, side channel, partial curve, poor fit].
With CCN1C(=O)NC(=O)/C(=C\c2cn(CC(=O)N3CCCCC3)c3ccccc23)C1=O the Potency was inconclusive: 89.1 µM [fluorescent, side channel, single point].
For CCOCCSc1nc2c(c(-c3cccs3)c1C#N)CC/C2=C/c1cccs1, the Potency was inconclusive: 44.7 µM [fluorescent, side channel, partial curve, poor fit].
For Cc1cc(C=C(C#N)C#N)ccc1N1CCCC1, the Potency was inconclusive: 56.2 µM [fluorescent, side channel, partial curve, poor fit].
In the case of C[C@@H]1CC[C@@]2(OC1)O[C@H]1C[C@H]3[C@@H]4CC=C5C[C@@H](O)[C@H](O)C[C@]5(C)C4CC[C@]3(C)[C@H]1[C@@H]2C (stereo not given in full), the Potency is reported as inconclusive: 39.8 µM [quencher, side channel, partial curve, poor fit].
In the case of Cc1cc(C)cc(N2C(=O)/C(=C\c3ccc(N4CCN(C)CC4)o3)C(=O)NC2=S)c1, the Potency is reported as inconclusive: 89.1 µM [fluorescent, side channel, single point].
With C#C[C@]1(O)CC[C@H]2[C@@H]3CCC4=Cc5nc6nc7ccccc7n6cc5C[C@]4(C)[C@H]3CC[C@@]21C the Potency was inconclusive: 79.4 µM [fluorescent, side channel, partial curve, poor fit].
CN1CCN(c2ccc([N+](=O)[O-])c3no[n+]([O-])c23)CC1 was tested, and the Potency was inconclusive: 44.7 µM [fluorescent, side channel, partial curve, poor fit].
With CSc1ncc(/C=C2/C(=O)NC(=O)N(c3ccc(C)cc3)C2=O)cn1 the “activity change, negative = inhibition” value was inactive: -3.04%.
For CCCCn1c(O)c(/C=C2\C=Nc3ccccc32)c(=O)[nH]c1=O, the Potency was inconclusive: 89.1 µM [fluorescent, side channel, single point].
With CN1CCN(c2ccc(/C=C3\C(=O)NC(=S)N(c4cccc(Br)c4)C3=O)o2)CC1 the Potency was inconclusive: 79.4 µM [fluorescent, partial curve, poor fit].
